Measurements reported in US8975247B2, “Methods and compositions of treating a flaviviridae family viral infection” (priority 2009, dated 2015).
Read-outs that look alike come from different tables or passages of the source.

What was measured:
[1] = system: HCV genotype 2a infectious clone; experiment: HCV genotype 2a infectious clone assay (Renilla luciferase); format: cell-based; conditions: for activity at 5 µM: Hepatitis C virus, read-out: 2a % activity @ 5 μM, % replication activity of control remaining at 5 μM test compound; for 2a % activity @ 5 μM: % replication activity of control remaining at 5 μM test compound
Huh7.5 cells = format: cell-based; conditions: human, 3 days
hERG channel = hERG channel (Homo sapiens (Human), UniProt Q12809); experiment: hERG channel assay (whole cell patch clamp)
Sequence of hERG channel (Q12809 whole entry): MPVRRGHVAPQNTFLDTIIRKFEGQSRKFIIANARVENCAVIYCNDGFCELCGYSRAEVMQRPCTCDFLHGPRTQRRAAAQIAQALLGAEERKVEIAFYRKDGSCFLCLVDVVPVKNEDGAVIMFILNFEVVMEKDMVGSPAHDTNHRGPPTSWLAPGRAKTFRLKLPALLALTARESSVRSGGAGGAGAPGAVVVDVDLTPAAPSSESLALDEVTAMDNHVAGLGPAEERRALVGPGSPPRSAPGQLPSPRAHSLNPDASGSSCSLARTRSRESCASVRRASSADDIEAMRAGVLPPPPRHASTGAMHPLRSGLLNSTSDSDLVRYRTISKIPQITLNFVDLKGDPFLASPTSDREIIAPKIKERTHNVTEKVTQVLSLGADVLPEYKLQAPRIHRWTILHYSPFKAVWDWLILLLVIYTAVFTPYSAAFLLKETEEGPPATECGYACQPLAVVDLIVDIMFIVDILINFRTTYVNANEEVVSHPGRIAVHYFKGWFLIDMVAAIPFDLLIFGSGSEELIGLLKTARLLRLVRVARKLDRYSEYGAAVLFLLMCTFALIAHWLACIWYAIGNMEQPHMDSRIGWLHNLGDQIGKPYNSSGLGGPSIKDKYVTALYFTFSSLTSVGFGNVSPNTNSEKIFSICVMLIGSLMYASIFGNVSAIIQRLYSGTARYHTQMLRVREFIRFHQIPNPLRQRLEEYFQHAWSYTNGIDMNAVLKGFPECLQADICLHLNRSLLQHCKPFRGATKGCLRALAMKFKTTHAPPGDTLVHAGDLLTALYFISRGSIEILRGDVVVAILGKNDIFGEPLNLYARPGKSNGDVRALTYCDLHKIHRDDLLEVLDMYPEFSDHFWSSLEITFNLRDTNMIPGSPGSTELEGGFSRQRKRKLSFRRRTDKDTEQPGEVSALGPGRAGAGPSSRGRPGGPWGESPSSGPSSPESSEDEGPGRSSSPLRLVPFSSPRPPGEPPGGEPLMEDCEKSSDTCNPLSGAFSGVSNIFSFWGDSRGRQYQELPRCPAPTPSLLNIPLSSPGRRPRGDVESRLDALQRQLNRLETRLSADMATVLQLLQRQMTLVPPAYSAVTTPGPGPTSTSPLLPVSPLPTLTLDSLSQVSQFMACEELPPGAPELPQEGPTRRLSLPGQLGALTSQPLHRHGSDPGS

[2] = MTT assay for HCV replicon reporter cell lines (cell toxicity); conditions: human

SMILES | activity at 5 µM [1] [%] | 2a Cell Viability @ 5 μM (Huh7.5 cells) | 2a Cell Viability @ 10 μM (Huh7.5 cells) | IC50 (hERG channel) [µM] | EC50 at 48 h [2] [µM] | further results
Clc1ccc(Cn2c(CN3CCCC3)nc3ccccc32)cc1 [EBP001] | 70 | 100% | 90% | < 1 | – | –
Cc1cc2ncn(Cc3ccc(Cl)cc3)c2cc1C [EBP003] | – | 85% | 100% | 7 | – | 2a % activity @ 5 μM [1]: 50%
COc1ccc(Cn2cnc3c(NS(C)(=O)=O)c(C)c(C)cc32)cc1 [EBP103] | – | 100, 100% | 100, 100% | > 30 | – | 2a % activity @ 5 μM [1]: 35%
O=c1ccc(-c2nc3cc(Cl)c(Cl)cc3n2Cc2ccc(Cl)c(Cl)c2)c[nH]1 [EBP106] | 50 | 93% | 83% | 5 | – | –
OCc1nc2ccccc2n1Cc1ccc(Cl)cc1 [EBP143] | 85 | >100, >100% | >100, >100% | > 30 | – | –
OC[C@@H]1CCCN1Cc1nc2ccccc2n1Cc1ccc(Cl)cc1 [EBP163] | 71 | >100, >100% | >100, >100% | < 1 | – | –
Cc1ccc2c(c1)nc(CN1CCC[C@@H]1C)n2Cc1ccc(Cl)cc1 [EBP315] | 39 | 86% | 81% | < 1 | – | –
Cc1cc2nc(COC3CCCC3)n(Cc3ccc(Cl)cc3)c2cc1C [EBP325] | 49 | >100, >100% | >100, >100% | > 10 | – | –
Cc1cc2nc(/C=C/C3CCNC3)n(Cc3ccc(Cl)cc3)c2cc1C (stereo not shown) [EBP372] | – | – | – | 1.6 | > 25 | –
Cc1cc2nc(/C=C/c3ccccn3)n(Cc3ccc(Cl)cc3)c2cc1C [EBP375] | – | – | – | – | > 25 | –
Cc1cc2nc(/C=C/c3ccco3)n(Cc3ccc(Cl)cc3)c2cc1C [EBP376] | 76 | 105% | 98% | > 10 | – | –
Cc1cc2nc(/C=C/C3CCCNC3)n(Cc3ccc(Cl)cc3)c2cc1C (stereo not shown) [EBP378] | – | – | – | – | > 25 | –
Cc1cc2nc(CCc3ccncc3)n(Cc3ccc(Cl)cc3)c2cc1C [EBP417] | – | – | – | – | > 25 | –
Cc1cc2nc(CCC3CCCN3)n(Cc3ccc(Cl)cc3)c2cc1C (stereo not shown) [EBP418] | – | – | – | – | > 25 | –
Cc1ccc2nc(CN3CCCC3)n(Cc3ccc(Cl)cc3)c2c1 [EBP425] | 90 | 100, 100% | 100, 100% | 0.65 | – | –
Cc1ccc2nc(CN3CCC[C@H]3CO)n(Cc3ccc(Cl)cc3)c2c1 [EBP426] | – | – | – | – | > 25 | –
Cc1cc2nc(C(C)Cc3ccncc3)n(Cc3ccc(Cl)cc3)c2cc1C (stereo not shown) [EBP461] | – | – | – | 8.8 | > 25 | IC50 (hERG channel; read-out: hERG IC50, CHO cell line expressing hERG): 8.8 µM
C/C(=C\c1cccnc1)c1nc2cc(C)c(C)cc2n1Cc1ccc(Cl)cc1 [EBP462] | 45 | 95% | 91% | > 10 | – | –
Cc1cc2nc(CCC3CCNC3)n(Cc3ccc(Cl)cc3)c2cc1C (stereo not shown) [EBP463] | – | – | – | – | > 25 | –

SMILES | activity at 5 µM [1] [%] | 2a Cell Viability @ 5 μM (Huh7.5 cells) | 2a Cell Viability @ 10 μM (Huh7.5 cells) | IC50 (hERG channel) [µM] | EC50 at 48 h [2] [µM] | further results
Cc1cc2nc(CC3CCNCC3)n(Cc3ccc(Cl)cc3)c2cc1C [EBP467] | – | – | – | 1.1 | > 25 | –
Cc1cc2nc(CC3CCCCC3)n(Cc3ccc(Cl)cc3)c2cc1C [EBP468] | – | – | – | > 10 | > 25 | –
Cc1cc2nc(/C=C/C3CCCN3C)n(Cc3ccc(Cl)cc3)c2cc1C (stereo not shown) [EBP470] | – | – | – | – | 9.2 | –
Cc1cc2nc(CCC3CCCN3C)n(Cc3ccc(Cl)cc3)c2cc1C (stereo not shown) [EBP480] | – | – | – | – | > 25 | –
Clc1ccc(Cn2c(CN3CCCCO3)nc3ccccc32)cc1 [EBP481] | 93 | 91% | 87% | – | – | –
COc1ccc2nc(CN3CCCC3)n(Cc3ccc(Cl)cc3)c2c1 [EBP482] | 77 | 100, 100% | 100, 100% | – | – | –
Oc1ccc2nc(CN3CCCC3)n(Cc3ccc(Cl)cc3)c2c1 [EBP483] | 75 | 90% | 80% | – | – | –
COc1ccc2nc(CN3CCC[C@H]3CO)n(Cc3ccc(Cl)cc3)c2c1 [EBP484] | 81 | 87% | 83% | 5 | – | –
OC[C@@H]1CCCN1Cc1nc2ccc(O)cc2n1Cc1ccc(Cl)cc1 [EBP485] | 70 | 87% | 78% | – | – | –
COc1ccc2nc(CN3CCC[C@@H]3C)n(Cc3ccc(Cl)cc3)c2c1 [EBP486] | 76 | 100, 100% | 100, 100% | – | – | –
C[C@H]1CCCN1Cc1nc2ccc(O)cc2n1Cc1ccc(Cl)cc1 [EBP487] | 75 | 93% | 92% | – | – | –
COc1ccc2nc(CN3CCCCC3CO)n(Cc3ccc(Cl)cc3)c2c1 (stereo not shown) [EBP488] | 74 | 89% | 84% | – | – | –
COc1ccc2nc(CN3CCC[C@H]3C)n(Cc3ccc(Cl)cc3)c2c1 [EBP489] | 73 | 100% | 97% | – | – | –
O[C@@H]1CN(Cc2nc3ccccc3n2Cc2ccc(Cl)cc2)C[C@H]1O [EBP491] | 90 | 94% | 100% | – | – | –
Cc1cc2nc(/C=C/C3CCCN(C)C3)n(Cc3ccc(Cl)cc3)c2cc1C (stereo not shown) [EBP549] | – | – | – | – | > 25 | –
Cc1cc2nc(/C=C/C3CCCN(S(C)(=O)=O)C3)n(Cc3ccc(Cl)cc3)c2cc1C (stereo not shown) [EBP550] | – | – | – | – | > 25 | –
Cc1cc2nc(CCC3CCCN(C)C3)n(Cc3ccc(Cl)cc3)c2cc1C (stereo not shown) [EBP558] | – | – | – | – | > 25 | –
Cc1cc2nc(CC3CCCNC3)n(Cc3ccc(Cl)cc3)c2cc1C (stereo not shown) [EBP660] | – | – | – | – | > 25 | –
C/C(=C\C1CCNCC1)c1nc2cc(C)c(C)cc2n1Cc1ccc(Cl)cc1 [EBP771] | – | – | – | – | > 25 | –

SMILES | activity at 5 µM [1] [%] | 2a Cell Viability @ 5 μM (Huh7.5 cells) | 2a Cell Viability @ 10 μM (Huh7.5 cells) | IC50 (hERG channel) [µM] | EC50 at 48 h [2] [µM] | further results
CN1CCC(/C=C/c2nc3cc(Br)ccc3n2Cc2ccc(Cl)cc2)C1 (stereo not shown) [EBP773] | – | – | – | – | > 25 | –
Cc1cc2nc(C(C)CC3CCNCC3)n(Cc3ccc(Cl)cc3)c2cc1C (stereo not shown) [EBP796] | – | – | – | – | > 25 | –
C/C(=C\C1CCCNC1)c1nc2cc(C)c(C)cc2n1Cc1ccc(Cl)cc1 (stereo not shown) [EBP797] | – | – | – | – | > 25 | –
Cc1cc2nc(C(C)CC3CCCN3)n(Cc3ccc(Cl)cc3)c2cc1C (stereo not shown) [EBP799] | – | – | – | – | > 25 | –
C/C(=C\C1CCCN1)c1nc2cc(C)c(C)cc2n1Cc1ccc(Cl)cc1 (stereo not shown) [EBP800] | – | – | – | – | > 25 | –
CN1CCC(/C=C/c2nc3cc(-c4ccco4)ccc3n2Cc2ccc(Cl)cc2)C1 (stereo not shown) [EBP801] | – | – | – | – | 23 | –
CN1CCC(CCc2nc3cc(-c4ccco4)ccc3n2Cc2ccc(Cl)cc2)C1 (stereo not shown) [EBP802] | – | – | – | – | 21 | –
Clc1ccc(Cn2c(CNC3CCNCC3)nc3ccccc32)cc1 [EBP805] | – | – | – | – | > 25 | –
CC1CC(NCc2nc3ccccc3n2Cc2ccc(Cl)cc2)CCN1 (stereo not shown) [EBP809] | – | – | – | – | > 25 | –
Cc1cc2nc(/C=C3\CCNC(C)C3)n(Cc3ccc(Cl)cc3)c2cc1C (stereo not shown) [EBP869] | – | – | – | – | > 25 | –
Cc1cc2nc(C=C3CC4CCC(C3)N4)n(Cc3ccc(Cl)cc3)c2cc1C [EBP870] | – | – | – | – | 6.3 | –
Cc1cc2nc(CC3CCNC(C)C3)n(Cc3ccc(Cl)cc3)c2cc1C (stereo not shown) [EBP881] | – | – | – | 0.58 | – | –
Clc1ccc(Cn2c(CNC3CC4CCCC(C3)N4)nc3ccccc32)cc1 (stereo not shown) [EBP926] | – | – | – | – | > 25 | –
Clc1ccc(Cn2c(CNCC3CCCNC3)nc3ccccc32)cc1 (stereo not shown) [EBP928] | – | – | – | – | > 25 | –
Clc1ccc(Cn2c(/C=C/C3CCN(C4CCCC4)C3)nc3cc(Br)ccc32)cc1 (stereo not shown) [EBP934] | – | – | – | – | > 25 | –
Clc1ccc(Cn2c(/C=C\C3CCN(C4CCCC4)C3)nc3cc(Br)ccc32)cc1 (stereo not shown) [EBP935] | – | – | – | – | > 25 | –
Clc1ccc(Cn2c(/C=C/C3CCN(CCCC4CCCCC4)C3)nc3cc(Br)ccc32)cc1 (stereo not shown) [EBP936] | – | – | – | – | 9.9 | –
Clc1ccc(Cn2c(/C=C\C3CCN(CCCC4CCCCC4)C3)nc3cc(Br)ccc32)cc1 (stereo not shown) [EBP937] | – | – | – | – | > 25 | –
